About 14,000 (4.5%) of roughly 310,000 compounds showed an effect of 50% or more. The effect is printed as a negative number. The list shows a part of the results.
biological target: human ether-à-go-go-related gene (hERG) potassium channel (human, UniProt Q12809); test: primary screen, population patch clamp on CHO cells stably expressing hERG
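Further: peak tail current of the secondary pulse compared with the same well before compound.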

Sequence of human ether-à-go-go-related gene (hERG) potassium channel (Q12809 whole entry, looked up): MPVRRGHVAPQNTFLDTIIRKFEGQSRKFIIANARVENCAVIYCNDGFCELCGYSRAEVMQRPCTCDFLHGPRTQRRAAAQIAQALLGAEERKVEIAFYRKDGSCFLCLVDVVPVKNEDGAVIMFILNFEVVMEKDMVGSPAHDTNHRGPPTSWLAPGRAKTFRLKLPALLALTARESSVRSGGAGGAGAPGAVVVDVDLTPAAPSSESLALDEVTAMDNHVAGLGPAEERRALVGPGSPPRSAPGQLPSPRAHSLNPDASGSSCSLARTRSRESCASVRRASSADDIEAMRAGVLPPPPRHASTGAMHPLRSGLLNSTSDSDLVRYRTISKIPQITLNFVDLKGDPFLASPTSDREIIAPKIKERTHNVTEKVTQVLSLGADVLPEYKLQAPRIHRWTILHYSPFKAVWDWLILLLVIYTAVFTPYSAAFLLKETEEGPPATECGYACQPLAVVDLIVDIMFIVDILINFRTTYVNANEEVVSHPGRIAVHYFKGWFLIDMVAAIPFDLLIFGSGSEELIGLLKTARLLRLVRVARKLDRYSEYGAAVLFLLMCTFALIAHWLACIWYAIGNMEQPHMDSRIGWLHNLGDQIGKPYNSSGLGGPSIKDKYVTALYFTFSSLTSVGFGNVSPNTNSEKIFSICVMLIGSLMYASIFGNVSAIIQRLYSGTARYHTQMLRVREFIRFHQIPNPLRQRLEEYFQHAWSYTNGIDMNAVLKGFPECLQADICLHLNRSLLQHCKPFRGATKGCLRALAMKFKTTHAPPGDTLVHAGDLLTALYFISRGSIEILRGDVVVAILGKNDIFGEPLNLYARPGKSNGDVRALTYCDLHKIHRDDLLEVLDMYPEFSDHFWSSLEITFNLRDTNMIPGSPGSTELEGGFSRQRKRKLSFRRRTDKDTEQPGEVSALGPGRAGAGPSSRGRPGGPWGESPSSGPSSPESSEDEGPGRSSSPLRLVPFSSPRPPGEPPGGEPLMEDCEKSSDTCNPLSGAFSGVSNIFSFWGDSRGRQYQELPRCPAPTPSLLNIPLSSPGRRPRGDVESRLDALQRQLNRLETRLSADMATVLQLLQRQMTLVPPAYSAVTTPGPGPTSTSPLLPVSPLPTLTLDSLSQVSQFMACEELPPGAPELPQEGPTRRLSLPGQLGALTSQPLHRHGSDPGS

| Compound | hERG current change (%, negative = inhibition) at 10uM [%] |
| --- | --- |
| c1ccc(-c2nc(C3CCCCC3)no2)cc1 | -0.00972 |
| COc1cc(/C=N/N2C(C)CCCC2C)cc(OC)c1O (stereo not drawn) | 1.42 |
| Cc1ccccc1Cn1c(=O)n(CCC(=O)NCc2ccc3c(c2)OCO3)c(=O)c2ccccc21 | 2.06 |
| O=C(NCCCN1CCN(c2ccccc2F)CC1)C1CCN(S(=O)(=O)c2cccs2)CC1 | -60.6 |
| Cl.NCCOc1ccccc1OCCN | 22.1 |
| COC(=O)C1(C#N)C(c2ccccc2)C1(C(=O)OC)C(=O)OC (stereo not drawn) | 12.5 |
| CC(OC(=O)CCCN=C1NS(=O)(=O)c2ccccc21)C(=O)N(C)c1ccccc1 (stereo not drawn) | 6.83 |
| O=C(NCc1ccc(Cl)cc1)c1ccc2c(=O)n(CC3CCCO3)c(=S)[nH]c2c1 (stereo not drawn) | 7.01 |
| CCOC(=O)C1(CCc2ccccc2)CCN(Cc2cc(OC)c(OC)cc2OC)CC1 | -77.4 |
| Nc1nc(NC2CCCCC2)nc(NCCO)c1[N+](=O)[O-] | -0.0226 |
| CC(C)(CN1CCNCC1)NS(=O)(=O)c1ccc(Cl)cc1 | -60.3 |
| COc1ccc(-c2cc(C(=O)Nc3cccnc3Cl)no2)cc1OC | 16.6 |
| CCCCNC(=O)c1onc(CSc2nc3ccccc3[nH]2)c1C(=O)NCCCC | -35.6 |
| CC(NC(=O)COc1cccnc1[N+](=O)[O-])c1ccc(Cl)cc1 (stereo not drawn) | -5.73 |
| Cc1onc(-c2c(F)cccc2Cl)c1C(=O)NC(=S)Nc1c(C)n(C)n(-c2ccccc2)c1=O | 13.7 |
| O=C(CCC1CCCC1)N=C1SC2CS(=O)(=O)CC2N1Cc1ccccc1 (stereo not drawn) | 14.7 |
| COc1cc2c(c(OC)c1O)C(=O)CO2 | 27.2 |
| COc1ccc(S(=O)(=O)N2CCCCCC2)cc1C(=O)N(C)CC(=O)Nc1ccccc1Br | -2.82 |
| CC(=O)c1ccc(NC(=O)CSc2nc(N)c3cc4c(nc3n2)CCCC4)cc1 | 8.91 |
| CCCCn1c(N)c(N(CC)C(=O)/C=C/c2ccco2)c(=O)[nH]c1=O | 0.82 |
| Cc1ccc(NS(=O)(=O)c2c(C)[nH]c(C)c2C(=O)N2CCCCC2)c(Cl)c1 | -2.23 |
| O=C(NCCCO)/C(=C\C=C\c1ccccc1)NC(=O)c1ccccc1Cl | -12.6 |
| Cc1nc([N+](=O)[O-])c(Br)n1Cc1ccccc1 | 4.73 |

| Compound | hERG current change (%, negative = inhibition) at 10uM [%] |
| --- | --- |
| O=c1[nH]c2cc(S(=O)(=O)CCO)ccc2o1 | 23.1 |
| CCOc1ccc(NC(=O)CSc2cn[nH]n2)cc1 | 3.89 |
| Cc1c(C=NCCOCc2ccccc2)cnn1C | 7.22 |
| Cc1c(NC(=O)/C(C#N)=C/c2c(N3CCCCC3)nc3ccccn3c2=O)c(=O)n(-c2ccccc2)n1C | 4.99 |
| C/C(=N/NC(=O)c1cccc(Br)c1)C1CC2CCC1C2 (stereo not drawn) | 15.1 |
| Cc1cnc(C(=O)OCC(=O)c2ccccc2)cn1 | 16.7 |
| Cc1nonc1-c1ccc2c(c1)OCO2 | 7.77 |
| Cc1ccc(N2CC(C(=O)N3CCOCC3)CC2=O)cc1C (stereo not drawn) | 6.52 |
| COc1cc2c(-c3ccccc3O)nc3c(c(C)nn3-c3ccccc3)c2cc1OC | 0.924 |
| O=C1c2ccccc2C(=O)C1(CO)c1ccccc1 | 27.7 |
| COCCCNC(=S)N(Cc1ccccc1)Cc1ccc(F)cc1 | -18.8 |
| CN(CCOc1ccccc1)C(=O)c1cc([N+](=O)[O-])cc([N+](=O)[O-])c1 | -56.9 |
| O=C(NCCN1CCOCC1)c1ccc2c(c1)N(Cc1ccccc1)CCS2 | -17.7 |
| Cc1ccccc1OCC(=O)Nc1ccc(S(=O)(=O)Nc2onc(C)c2C)cc1 | 23.9 |
| COC(=O)c1ccc(C)c(NC(=O)CN(c2cc(OC)ccc2OC)S(C)(=O)=O)c1 | -36.7 |
| CC(=O)N/N=C(\C)CCc1ccccc1 | 15.7 |
| N#CC1(NC(=O)COC(=O)c2nc(Cl)ccc2Cl)CCCCC1 | 10.4 |
| COc1ccc(C(=O)NCCCN2CCOCC2)cc1S(=O)(=O)N1CCCc2ccccc21 | -29.7 |
| CCCN1CCC(=O)N([C@H](CSc2ccccc2)Cc2ccccc2)CC1 | -69.6 |
| CCOc1ccc(OCC(=O)Nc2cc3c(cc2C(=O)O)OCCCO3)cc1 | 18.5 |
| O=C1OCc2cc(NC(=O)C3CCCO3)ccc21 (stereo not drawn) | 7.02 |
| CCc1nc(SCC(=O)Nc2ccc3c(c2)OCCO3)c2oc3ccccc3c2n1 | 13.6 |
| Cc1cc(NC(=O)CSc2nnc(-c3cccc(Cl)c3)o2)no1 | 18.5 |

| Compound | hERG current change (%, negative = inhibition) at 10uM [%] |
| --- | --- |
| Cc1nc2ccccc2c(=O)n1NC(=O)c1ccco1 | 10.1 |
| CC(Cc1ccccc1Sc1ccccc1)N(C)C.O=C(O)/C=C\C(=O)O (stereo not drawn) | -69.5 |
| COc1ccc(NC2c3ccccc3C(=O)N2c2cccnc2)cc1Cl (stereo not drawn) | -28 |
| Cc1cccc2cc(C#N)c(SCc3nnc(-c4ccccc4[N+](=O)[O-])o3)nc12 | -6.72 |
| CCCCNC(=O)CCCCCNS(=O)(=O)c1ccc(OC)cc1 | 13.8 |
| O=C(CN1CCCCCC1)NC(c1ccccc1)c1ccccc1.O=C(O)C(=O)O | -57.7 |
| Cc1cccc(NC(=O)CSc2nc3ccccc3o2)c1 | 3.5 |
| C=CCNC(=O)CN(c1ccccc1OCC)S(=O)(=O)c1ccc(C)cc1 | -12.5 |
| Cc1csc2c(N3CCN(C(=O)Nc4ccc(OC(F)(F)F)cc4)CC3)ncnc12 | -32.9 |
| COC(=O)Cc1cc(=O)[nH]c(/N=C(\N)Nc2cccc(C)c2)n1 | 13.3 |
| O=C1c2ccccc2C(=O)N1CCCC(=O)N1CCCc2ccccc21 | -14 |
| COc1ccc(OC)c(NC(=O)CSc2nnc(CNC(=O)c3cccs3)o2)c1 | -4.23 |
| Cc1ccc(C(=O)NCCCN2CCOCC2)o1 | 30.3 |
| COCc1cc(=O)n2[nH]c(C)cc2n1 | 16 |
| CC1CCN(S(=O)(=O)c2ccc(NC(=O)Cc3ccc(S(=O)(=O)N4CCOCC4)s3)cc2)CC1 | -18.9 |
| COCCn1c(SCc2ccc(OC)c(F)c2)nnc1-c1ccncc1 | 8.06 |
| C/C(CC(=O)Nc1cccc(F)c1)=N\NC(=O)C(=O)NC1CCCCC1 | 12.5 |
| NC(=O)c1ccc(SCC(=O)OCC(=O)NCc2ccco2)c([N+](=O)[O-])c1 | 8.14 |
| Cl.O=C(O)C1CCN(Cc2ccccn2)CC1 | 16.2 |
| Cc1c(C(=O)c2ccccc2)c2ccccn2c1CCc1ccccn1 | -12.3 |
| Cc1cc(NC(=O)COc2coc(CN3CCN(c4ccccc4)CC3)cc2=O)no1 | -21.1 |
| Cc1cc(NCc2ccccc2)n2ncc(-c3ccccc3)c2n1 | 5.36 |
| Cn1c(Cn2c(=O)sc3ccccc32)nnc1SCC(=O)NC1CCCC1 | 11.7 |

| Compound | hERG current change (%, negative = inhibition) at 10uM [%] |
| --- | --- |
| CCCCCOC(=O)C1C2C=CC3(CN(c4ccccc4C)C(=O)C13)O2 (stereo not drawn) | 8.66 |
| CC(=O)c1c(OC(=O)c2ccccc2Br)ccc2c(C)cc(=O)oc12 | -3.46 |
| COc1ccccc1N(CC(=O)NCC1CCCO1)C(=O)CCC(=O)Nc1cc(C)on1 (stereo not drawn) | 13.1 |
| O=C(Nc1cc(C(F)(F)F)ccc1N1CCCCC1)c1ccc(Br)o1 | 13.7 |
| COc1ccc(C(=O)NC(C)c2nnc(SCC(=O)NC3=NCCS3)n2C)cc1 (stereo not drawn) | 15.3 |
| COc1ccc(N2C(=O)/C(=C\c3ccco3)N=C2SCC(N)=O)cc1Cl | 6.01 |
| Cc1ccc(/C=N\NC(=O)Cn2nnc3ccccc32)o1 | -4.11 |
| CC(O)CCc1ccc(O)cc1 (stereo not drawn) | 11.7 |
| COC(=O)C1=C(C)NC(C)=C(C(=O)OC)C1c1ccc2ccccc2n1 | 15.8 |
| Nc1nnc(/C=C/c2ccccc2Cl)s1 | 12.1 |
| COc1ccc(CCNC(=O)c2ccc(OC)c(OC)c2)cc1OC | 3.2 |
| COc1ccc(Cc2noc(CN3CCN(Cc4csc(C)n4)CC3)n2)cc1OC | 18.2 |
| Cc1ccccc1-c1nnc(-c2ccccc2)o1 | -6.58 |
| O=C(CCCN1C(=O)c2cccc3cccc(c23)C1=O)N1CCN(c2ncccn2)CC1 | 2.04 |
| O=C1N[C@@H](Cc2ccccc2)[C@@H](c2ccco2)O1 | 14.6 |
| CCn1c(NCc2ccco2)nc2ccccc21 | 2.38 |
| COc1ccc(C2=NN(C(=O)CCC(=O)O)C(c3ccc(F)cc3)C2)cc1 (stereo not drawn) | 5.89 |
| COC(=O)C(C(=O)OC)C(CC(=O)c1ccc(C)cc1)c1cc(OC)c(OC)c(OC)c1 (stereo not drawn) | 5.41 |
| CCN1C(=O)[C@@H]2[C@H](C1=O)[C@@H]1C(=O)Nc3ccccc3C(=O)N1[C@@H]2c1ccc(Br)cc1 | -47.3 |
| [Cl-].c1ccc(C[n+]2cccc(-c3ccccc3)c2)cc1 | -2.49 |
| Cc1nnc(SCc2nc3sc4c(c3c(=O)[nH]2)CCCC4)n(N)c1=O | 1.55 |
